{"source": "the supplement of paper PMC3334620", "note": "Whole data set: some 33,000 sequences, median “E-score (-0.5 to 0.5)” near -0.054, cut for the highest 2% near 0.39. The list shows a part of the results.", "data": [{"biological_target": "Ylr278c (UniProt Q05854)", "experiment": "PBM E-score (8-mer binding enrichment) (E-score (-0.5 to 0.5)); higher = stronger / more preferred TF binding; most listed sequences are background and not binding sites", "conditions": "protein concentration: 200 nM; construct: GST-DNA-binding domain", "procedure,_shortened": "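Masliner-normalised scans of fluorescent anti-GST signal were the basis for scoring. That signal came from GST-tagged yeast transcription factors applied at about 100-200 nM to double-stranded universal all-10-mer Agilent arrays on fresh or once-stripped slides. Each ungapped eight-base word, pooled with its reverse complement, received an E-score from the Universal PBM Analysis Suite.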", "values": [{"sequence": "CGCTAGTC", "PBM E-score": -0.161}, {"sequence": "GTCCTCAC", "PBM E-score": -0.113}, {"sequence": "CTCGTCTA", "PBM E-score": -0.164}, {"sequence": "AAGTACAC", "PBM E-score": -0.00177}, {"sequence": "AAGCAATA", "PBM E-score": -0.0625}, {"sequence": "ATAGGCCC", "PBM E-score": -0.0168}, {"sequence": "AACGGCTA", "PBM E-score": -0.0515}, {"sequence": "CAAAAGGA", "PBM E-score": -0.159}, {"sequence": "CGCACATA", "PBM E-score": -0.0716}, {"sequence": "AGAGAGCT", "PBM E-score": -0.15}, {"sequence": "CCAGGCCG", "PBM E-score": 0.065}, {"sequence": "AGTTGGGG", "PBM E-score": 0.00703}, {"sequence": "ATTCAAGA", "PBM E-score": -0.13}, {"sequence": "GACGAACA", "PBM E-score": 0.0976}, {"sequence": "GAAAACCA", "PBM E-score": -0.182}, {"sequence": "ATCGCATA", "PBM E-score": 0.00108}, {"sequence": "ATGGGATA", "PBM E-score": -0.122}, {"sequence": "TGACTCAA", "PBM E-score": -0.346}, {"sequence": "ATCCAAAT", "PBM E-score": -0.0681}, {"sequence": "GCGGGCCC", "PBM E-score": 0.222}, {"sequence": "CCCTCTTC", "PBM E-score": -0.312}, {"sequence": "ATTCCCAA", "PBM E-score": -0.06}, {"sequence": "ACTGCTCA", "PBM E-score": -0.169}, {"sequence": "GGTCCTTA", "PBM E-score": 0.0251}, {"sequence": "AGATTCCG", "PBM E-score": 0.387}, {"sequence": "ACATTAAC", "PBM E-score": -0.0113}, {"sequence": "AGTTCCGC", "PBM E-score": 0.383}, {"sequence": "ACGAGGAT", "PBM E-score": -0.319}, {"sequence": "CTCCTTAC", "PBM E-score": -0.209}, {"sequence": "AGCGTCCT", "PBM E-score": -0.297}, {"sequence": "GTTTTTCA", "PBM E-score": 0.135}, {"sequence": "AACAGTAC", "PBM E-score": -0.104}, {"sequence": "CTTGAGGC", "PBM E-score": -0.045}, {"sequence": "ATTGTACA", "PBM E-score": -0.0426}, {"sequence": "TTATGCAA", "PBM E-score": -0.333}, {"sequence": "AAGTACGC", "PBM E-score": -0.18}, {"sequence": "ACGCTGGC", "PBM E-score": -0.0381}, {"sequence": "GTGACAGA", "PBM E-score": -0.121}, {"sequence": "ACTGAACG", "PBM E-score": -0.187}, {"sequence": "CGCCGGCA", "PBM E-score": 0.39}, {"sequence": "CAAAGGCC", "PBM E-score": 0.101}, {"sequence": "ACGGGCCA", "PBM E-score": 0.149}, {"sequence": "GACTGTGC", "PBM E-score": -0.274}, {"sequence": "CCCCTGCG", "PBM E-score": -0.137}, {"sequence": "CCGACCCA", "PBM E-score": 0.268}, {"sequence": "GAAACGAC", "PBM E-score": 0.0245}, {"sequence": "AAAAAAAC", "PBM E-score": -0.0699}, {"sequence": "ACCCCGTA", "PBM E-score": 0.214}, {"sequence": "CAAGGACG", "PBM E-score": -0.118}, {"sequence": "ACCTAACA", "PBM E-score": -0.0051}, {"sequence": "GCTGCACA", "PBM E-score": -0.148}, {"sequence": "ACTTGAGG", "PBM E-score": -0.0433}, {"sequence": "AGACAGTG", "PBM E-score": -0.17}, {"sequence": "AGACTTTA", "PBM E-score": -0.217}, {"sequence": "GAAATCTA", "PBM E-score": 0.123}, {"sequence": "AGCACAGA", "PBM E-score": -0.0295}, {"sequence": "ATGTCTGG", "PBM E-score": 0.112}, {"sequence": "CCTGTCGC", "PBM E-score": -0.144}, {"sequence": "AGAATTCT", "PBM E-score": 0.138}, {"sequence": "AGGGAATG", "PBM E-score": -0.205}, {"sequence": "CCTTTTTC", "PBM E-score": 0.00118}, {"sequence": "GTAGTTTA", "PBM E-score": 0.0771}, {"sequence": "GAATAGCA", "PBM E-score": -0.0928}, {"sequence": "ACACAAAG", "PBM E-score": -0.233}, {"sequence": "CAAGTATG", "PBM E-score": -0.255}, {"sequence": "TCGAGCGA", "PBM E-score": 0.0809}, {"sequence": "CAAATCAA", "PBM E-score": -0.167}, {"sequence": "CCGCACAC", "PBM E-score": 0.0213}, {"sequence": "AGATCGGA", "PBM E-score": 0.43}, {"sequence": "CCTGATTA", "PBM E-score": 0.0108}, {"sequence": "AATTGTCC", "PBM E-score": 0.149}, {"sequence": "ACAGTACA", "PBM E-score": 0.0277}, {"sequence": "ATGTGGCG", "PBM E-score": 0.137}, {"sequence": "GCCCTCGC", "PBM E-score": -0.0909}, {"sequence": "GTGTATAA", "PBM E-score": -0.181}, {"sequence": "CCCGGGCC", "PBM E-score": 0.308}, {"sequence": "CCGACTGA", "PBM E-score": 0.2}, {"sequence": "CACACTCA", "PBM E-score": -0.138}, {"sequence": "CCGACGCC", "PBM E-score": 0.361}, {"sequence": "AATAGGGT", "PBM E-score": -0.179}, {"sequence": "AGCCTCCC", "PBM E-score": -0.0938}, {"sequence": "ATACACTA", "PBM E-score": -0.122}, {"sequence": "GAAGTCAA", "PBM E-score": -0.0583}, {"sequence": "AGCCTTTC", "PBM E-score": -0.15}, {"sequence": "ATTCAACA", "PBM E-score": -0.0965}, {"sequence": "CCTTTAAC", "PBM E-score": -0.0118}, {"sequence": "AATCCTTA", "PBM E-score": -0.194}, {"sequence": "ATTCGCGA", "PBM E-score": 0.0332}, {"sequence": "CCCCCCCG", "PBM E-score": -0.31}, {"sequence": "AAAAGCCT", "PBM E-score": -0.224}, {"sequence": "ATAGTCAT", "PBM E-score": -0.19}, {"sequence": "CACGCTCC", "PBM E-score": 0.129}, {"sequence": "CAGATATA", "PBM E-score": -0.131}, {"sequence": "CGAATCCG", "PBM E-score": 0.352}]}]}
